# Paper PMC4336329 (PLoS ONE, 2015)
# The whole screen tested about 310,000 compounds, of which about 14,000 (4.5%) showed an effect of 50% or more. The effect is printed as a negative number. This is one part of the list.
# Target: human ether-à-go-go-related gene (hERG) potassium channel (human, UniProt Q12809)
# Experiment: primary screen, population patch clamp on CHO cells stably expressing hERG
# 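Also: peak tail current of the secondary pulse compared with the same well before compound.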
# human ether-à-go-go-related gene (hERG) potassium channel, sequence (Q12809 whole entry, looked up): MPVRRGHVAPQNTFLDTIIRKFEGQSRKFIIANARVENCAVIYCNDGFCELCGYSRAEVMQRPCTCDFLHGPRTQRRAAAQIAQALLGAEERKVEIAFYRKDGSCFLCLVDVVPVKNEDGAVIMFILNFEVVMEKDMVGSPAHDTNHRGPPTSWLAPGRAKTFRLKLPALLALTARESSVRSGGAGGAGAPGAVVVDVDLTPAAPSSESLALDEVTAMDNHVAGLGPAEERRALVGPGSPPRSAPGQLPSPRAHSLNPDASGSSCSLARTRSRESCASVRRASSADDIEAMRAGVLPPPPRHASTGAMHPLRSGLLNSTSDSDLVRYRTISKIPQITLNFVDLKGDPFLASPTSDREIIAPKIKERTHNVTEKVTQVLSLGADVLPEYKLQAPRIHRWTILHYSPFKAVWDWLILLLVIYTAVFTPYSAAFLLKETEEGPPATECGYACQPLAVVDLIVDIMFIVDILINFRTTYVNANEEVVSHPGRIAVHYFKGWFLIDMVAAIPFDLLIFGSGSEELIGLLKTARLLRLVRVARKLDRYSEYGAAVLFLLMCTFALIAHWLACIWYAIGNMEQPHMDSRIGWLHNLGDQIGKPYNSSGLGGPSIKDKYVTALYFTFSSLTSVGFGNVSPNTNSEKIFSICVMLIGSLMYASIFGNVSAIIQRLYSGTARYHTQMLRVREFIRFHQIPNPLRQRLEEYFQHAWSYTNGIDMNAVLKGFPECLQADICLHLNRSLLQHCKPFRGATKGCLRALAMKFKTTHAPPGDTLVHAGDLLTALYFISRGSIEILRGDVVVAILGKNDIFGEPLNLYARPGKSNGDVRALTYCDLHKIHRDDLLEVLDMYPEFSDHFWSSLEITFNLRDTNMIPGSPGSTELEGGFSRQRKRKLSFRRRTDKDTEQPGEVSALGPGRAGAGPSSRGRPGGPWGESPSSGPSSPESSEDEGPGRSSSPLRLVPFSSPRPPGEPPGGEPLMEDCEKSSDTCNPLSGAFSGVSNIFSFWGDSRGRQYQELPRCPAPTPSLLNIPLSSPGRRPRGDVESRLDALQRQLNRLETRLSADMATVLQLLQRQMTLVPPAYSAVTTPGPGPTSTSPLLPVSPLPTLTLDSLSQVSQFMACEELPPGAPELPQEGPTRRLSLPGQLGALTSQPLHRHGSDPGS
row,SMILES,"hERG current change (%, negative = inhibition) at 10uM"
1,O=Cc1cn(CCC(=O)O)nc1-c1cc2ccccc2o1,-5.41%
2,O=C(COc1ccc2cc(Br)ccc2c1)N1CCCC1,-50.1%
3,COC(=O)Cn1c2ccc(OC)cc2c2nc3ccccc3nc21,-7.43%
4,COc1ccc(/C=N/n2c(-c3cc(C)[nH]n3)n[nH]c2=S)cc1OC,18.6%
5,CCOCC(=O)Nc1nnc(Cc2ccc(OC)c(OC)c2)s1,1.11%
6,COc1ccc(S(=O)(=O)N(C)C)cc1NC(=O)CSc1ncccn1,-11.8%
7,CCOC(=O)C1(CCc2ccccc2)CCN(C(=O)c2occc2C)CC1,-63.3%
8,O=C(/C=C/c1cccnc1)c1ccc([N+](=O)[O-])cc1,-42.3%
9,Cc1cc(NC(=O)CSCC(=O)N(C)Cc2ccc(Cl)cc2Cl)no1,-17.2%
10,COc1ccc(-c2ccc(S(=O)(=O)N3CCOCC3)cc2)cc1,6.36%
11,COc1ccc(C(=O)NC(=S)NCc2cccnc2)cc1[N+](=O)[O-],-12.3%
12,CN1CCN(CCOc2ccc(Cl)c(Cl)c2)CC1.O=C(O)C(=O)O,-22.3%
13,Cn1cnnc1SCC(=O)c1c[nH]c2ccccc12,14.5%
14,COc1cc(/C=C2\NC(=S)N(C)C2=O)ccc1O,13.5%
15,Cc1cc(C)nc(SCc2ccc(C(=O)N/N=C/c3cccc(O)c3O)cc2)n1,-13.3%
16,CCOCCCNC(=O)c1cn(CC)c2ccc(S(=O)(=O)N3CCOCC3)cc2c1=O,-2.23%
17,O=S(=O)(NCc1ccccc1)c1ccc(-n2cccn2)cc1,-16.6%
18,O=C(NC1CC(=O)N(c2ccc(Cl)cc2)C1)N1CCN(C(=O)c2ccco2)CC1 (stereo not drawn),-91.6%
19,Cc1ccc(CSc2nnc([C@@H]3CCCN3C(=O)OC(C)(C)C)o2)cc1,-8.55%

row,SMILES,"hERG current change (%, negative = inhibition) at 10uM"
1,CCOc1cc(N2CCOCC2)c(OCC)cc1NC(=O)COc1ncnc2ccccc12,-30.1%
2,COc1ccc(OC)c2sc(NC(=O)c3ccc(S(=O)(=O)N4CCOCC4)cc3)nc12,-2.05%
3,CN1CCc2c(c(N3CCCCC3)nc3n[nH]c(N)c23)C1,-14.5%
4,O=C(CN1CCN(S(=O)(=O)c2ccc(F)c(Cl)c2)CC1)N1CCc2ccccc21,-34.7%
5,CN1C(=O)c2cccc3c(Cl)ccc(c23)C1=O,-2.92%
6,CN(C)CCNc1c(N)c(=O)oc2ccccc12,1.89%
7,O=C(CN1C(=O)NC2(CCCC2)C1=O)Nc1nc(-c2ccccc2)cs1,25.6%
8,O=C1O/C(=C\C(=O)N2CCOCC2)c2ccccc21,9.84%
9,NS(=O)(=O)c1ccc(Sc2ccc3ccccc3c2)nc1,14.7%
10,Nc1c(C(=O)Nc2ccc(F)cc2)nnn1-c1cccc(C(F)(F)F)c1,11.2%
11,CCOc1ccccc1CN1CCN(Cc2cc3ccccc3[nH]2)CC1CCO (stereo not drawn),-59.3%
12,O=C1c2ccccc2C2=Nc3ccccc3SC(c3cccc(F)c3)C12 (stereo not drawn),11.1%
13,COc1cc(C(=O)Oc2ccc3c(c2)OCC3=O)cc(OC)c1OC,17.7%
14,COc1cccc(-c2nc(N3CCCC3)c3ccccc3n2)c1O,-5.65%
15,C/C(=N\NC(=S)Nc1ccccc1C)c1ccc(O)cc1,-20%
16,Cn1c(SCc2ccccc2)nnc1-c1cccs1,-5.16%
17,Cc1ccccc1C(=O)O/N=C(\N)c1ccncc1,15%
18,Cc1ccc(C(C)C)c(OCC#CCN2CCCC2)c1.O=C(O)C(=O)O,-37.9%
19,CC(C)CC1c2[nH]c3ccccc3c2CCN1C(=O)CCC(=O)N(C)C (stereo not drawn),3.88%

row,SMILES,"hERG current change (%, negative = inhibition) at 10uM"
1,CCOc1ccc(N2CC(O)=C(c3nc4ccccc4c(=O)[nH]3)C2=N)cc1,9.77%
2,Cn1c(NC(=O)CCc2ccccc2)cc(=O)n(C)c1=O,-0.422%
3,CCC(C)NC(=O)CCC(=O)Nc1ccc2nc(N3CC(C)CC(C)C3)cc(C)c2c1 (stereo not drawn),-11.3%
4,O=C(Nc1ccc(NC(=O)c2ccco2)cc1)c1ccc2c(c1)OCO2,14.4%
5,CCCNC(=O)N1[C@H]2CC[C@@H]1C(C(=O)OC)=C(c1ccc(F)cc1F)C2,3.69%
6,O=[N+]([O-])c1ccc2c(c1)/C(=N\O)c1ccccc1-2,7.65%
7,CCOC(=O)/C=C/c1cnn(-c2ccccc2)c1,3%
8,O=C(CN1c2ccccc2S(=O)(=O)c2ccccc21)NCc1ccccc1,9.11%
9,O=C(CSc1nc(-c2ccco2)cc(C(F)(F)F)n1)N1CCc2ccccc2C1,-1.87%
10,Cc1nn(-c2ccc(Br)cc2)c(=O)c2ccccc12,6.19%
11,COc1cc(NC(=O)C2=COCCO2)c(OC)cc1Cl,9.11%
12,O=C(CC1(O)C(=O)N(C/C=C/c2ccccc2)c2ccccc21)c1ccccn1 (stereo not drawn),2.19%
13,Cc1ccc(NC(=O)CSc2nnc(C3CCCCC3)n2N)cc1F,2.3%
14,Cc1ccc(C)c(OCCn2cc(/C=C(/C#N)C(=O)NCC3CCCO3)c3ccccc32)c1 (stereo not drawn),13.5%
15,COc1ccc(C(CC(=O)NCC(OC)OC)NS(=O)(=O)c2ccc(Cl)cc2)cc1 (stereo not drawn),3.73%
16,CN(CCCCN1CCOCC1)Cc1nc(-c2ccc3c(c2)OCO3)no1,-10.5%
17,O=C(CCn1c(=O)[nH]c2ccsc2c1=O)N1CCN(Cc2ccc3c(c2)OCO3)CC1,-18.2%
18,CCOC(=O)c1sc(=NC(=O)c2ccc(Br)cc2)n(C)c1C,8.14%
19,COc1ccc(NS(=O)(=O)c2cccc3nonc23)c(OC)c1,-8.46%
